Where a chain is given by its changes, count along the chain named. In names and notes the source's numbering stands. ± gives the standard deviation of the averaged measurements. Laboratory Escherichia coli strains with one amino-acid change in an essential protein, pooled on minimal glucose agar with carbenicillin or gentamicin at twice the control MIC (plus kanamycin and chloramphenicol for the plasmids), 48 h. Fold change of barcode share against drug-free plates; higher = less susceptible. Active = above 20 in both replicates (the paper's putatively resistant). '<' = one read or none on drug, '>' = one read or none on a drug-free plate. Shares are relative, so most strains fall below 1 when a few take over. Listed are strains with at least 15 reads on both drug-free plates, and hits; most hits rest on fewer reference reads. Replicate rank correlation about 0.5. Edits are read from barcodes.
B1: ftsY I400A (protein)
chain: MAKEKKRGFFSWLGFGQKEQTPEKETEVQNEQPVVEEIVQAQEPVKASEQAVEEQPQAHTEAEAETFAADVVEVTEQVAESEKAQPEAEVVAQPEPVVEETPEPVAIEREELPLPEDVNAEAVSPEEWQAEAETVEIVEAAEEEAAKEEITDEELETALAAEAAEEAVMVVPPAEEEQPVEEIAQEQEKPTKEGFFARLKRSLLKTKENLGSGFISLFRGKKIDDDLFEELEEQLLIADVGVETTRKIITNLTEGASRKQLRDAEALYGLLKEEMGEILAKVDEPLNVEGKAPFVILMVGVNGVGKTTTIGKLARQFEQQGKSVMLAAGDTFRAAAVEQLQVWGQRNNIPVIAQHTGADSASVIFDAIQAAKARNIDVLIADTAGRLQNKSHLMEELKKAVRVMKKLDVEAPHEVMLTIDASTGQNAVSQAKLFHEAVGLTGITLTKLDGTAKGGVIFSVADQFGIPIRYIGVGERIEDLRPFKADDFIEALFARED
B2: argC F77A (protein)
chain: MLNTLIVGASGYAGAELVTYVNRHPHMNITALTVSAQSNDAGKLISDLHPQLKGIVDLPLQPMSDISEFSPGVDVVALATAHEVSHDLAPQFLEAGCVVFDLSGAFRVNDATFYEKYYGFTHQYPELLEQAAYGLAEWCGNKLKEANLIAVPGCYPTAAQLALKPLIDADLLDLNQWPVINATSGVSGAGRKAAISNSFCEVSLQPYGVFTHRHQPEIATHLGADVIFTPHLGNFPRGILETITCRLKSGVTQAQVAQVLQQAYAHKPLVRLYDKGVPALKNVVGLPFCDIGFAVQGEHLIIVATEDNLLKGAAAQAVQCANIRFGYAETQSLI
B3: argC F77W (protein)
chain: B2 chain with A77W
B4: ftsW L238W (protein)
chain: MRLSLPRLKMPRLPGFSILVWISTALKGWVMGSREKDTDSLIMYDRTLLWLTFGLAAIGFIMVTSASMPIGQRLTNDPFFFAKRDGVYLILAFILAIITLRLPMEFWQRYSATMLLGSIILLMIVLVVGSSVKGASRWIDLGLLRIQPAELTKLSLFCYIANYLVRKGDEVRNNLRGFLKPMGVILVLAVLLLAQPDLGTVVVLFVTTLAMLFLAGAKLWQFIAIIGMGISAVVLLIWAEPYRIRRVTAFWNPWEDPFGSGYQLTQSLMAFGRGELWGQGLGNSVQKLEYLPEAHTDFIFAIIGEELGYVGVVLALLMVFFVAFRAMSIGRKALEIDHRFSGFLACSIGIWFSFQALVNVGAAAGMLPTKGLTLPLISYGGSSLLIMSTAIMMLLRIDYETRLEKAQAFVRGSR
B5: ftsW F300P (protein)
chain: B4 chain with W238L, F300P
B6: ftsW F300A (protein)
chain: B4 chain with W238L, F300A
B7: ftsW L238D (protein)
chain: B4 chain with W238D

Biological target: Escherichia coli (laboratory strain)
Assay: barcode share on antibiotic plates over drug-free plates; higher = less susceptible
Experimental: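 A pool of E. coli strains, each edited to carry one amino-acid change in an essential protein, was grown for 48 h on minimal glucose agar with or without antibiotic; strain barcodes were sequenced; mean of two replicates.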

[1] = antibiotic: carbenicillin, 2× MIC (3.1 µg/mL)
[2] = antibiotic: gentamicin, 2× MIC (MIC 0.45 µg/mL)

Protein	fold change of barcode share [1]	fold change of barcode share [2]
B1	0.336 ± 0.066	< 0.0103
B2	0.923 ± 0.72	–
B3	1.51 ± 0.9	0.0273 ± 0.014
B4	0.276 ± 0.013	–
B5	0.0757 ± 0.012	< 0.0126
B6	0.195 ± 0.048	< 0.0105
B7	0.211 ± 0.062	–
